# Assay results published in article PMC12820563, “FoxP3 forms a head-to-head dimer in vivo and stabilizes its multimerization on adjacent microsatellites”.
# The list shows a part of the results.
# Target: T1, MBP-FoxP1dN (Mus musculus, UniProt P58462 326-579)
# T1 sequence: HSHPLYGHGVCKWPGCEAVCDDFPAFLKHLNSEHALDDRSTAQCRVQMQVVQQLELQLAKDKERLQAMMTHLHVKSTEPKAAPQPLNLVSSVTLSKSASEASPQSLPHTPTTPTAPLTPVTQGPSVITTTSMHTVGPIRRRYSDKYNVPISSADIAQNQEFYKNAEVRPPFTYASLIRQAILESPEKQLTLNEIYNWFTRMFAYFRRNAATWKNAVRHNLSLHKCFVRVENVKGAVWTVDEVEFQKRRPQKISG
# Assay: PD-seq (MBP pull-down with sequencing); 20 mM Tris-HCl pH 7.5, 100 mM NaCl, 1.5 mM MgCl2, 0.4 uM protein, 0.1 uM dsDNA library, 30 min, room temperature, amylose pull-down; high values mean tight binding
# Details: protein: recombinant; tags: His6-MBP; chain copies: 2; dsDNA, one strand shown
# Outline: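 Mouse FoxP3 or FoxP1 fragment lacking the N-terminus, His6-MBP-tagged and expressed in E. coli, was incubated at 0.4 µM with 0.1 µM Klenow-filled degenerate double-stranded DNA library for 30 min at room temperature in Tris pH 7.5 buffer with NaCl and MgCl2. Complexes captured on amylose resin were washed three times and their DNA sequenced on Illumina. Binding is reads-per-million enrichment of pull-down over input, replicates pooled.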
row,Sequence,binding signal
1,GATGATTGTTCTCCCAGCTGATGAATTGCTTCTATCGAGTAAACAAATTTTCCTAATCTTTCTGTTCAAGCGCCATCTAC,1.08 RPM ratio (pull-down/input)
2,GATGATTGTTCTCCCAGCTGATGAATTCGACTGCTCGAGTAAACAAATTTTCCTAATCTTTCTGTTCAAGCGCCATCTAC,0.795 RPM ratio (pull-down/input)
3,GATGATTGTTCTCCCAGCTGATGAATTGTACCGCTCGAGTAAACAAATTTTCCTAATCTTTCTGTTCAAGCGCCATCTAC,0.843 RPM ratio (pull-down/input)
4,GATGATTGTTCTCCCAGCTGATGAATTGTCGCGATCGAGTAAACAAATTTTCCTAATCTTTCTGTTCAAGCGCCATCTAC,0.957 RPM ratio (pull-down/input)
5,GATGATTGTTCTCCCAGCTGATGAATTACGATAATCGAGTAAACAAATTTTCCTAATCTTTCTGTTCAAGCGCCATCTAC,1.37 RPM ratio (pull-down/input)
6,GATGATTGTTCTCCCAGCTGATGAATTCCACTATTCGAGTAAACAAATTTTCCTAATCTTTCTGTTCAAGCGCCATCTAC,0.975 RPM ratio (pull-down/input)
7,GATGATTGTTCTCCCAGCTGATGAATTAAAAGGTTCGAGTAAACAAATTTTCCTAATCTTTCTGTTCAAGCGCCATCTAC,0.791 RPM ratio (pull-down/input)
8,GATGATTGTTCTCCCAGCTGATGAATTTGTGGATTCGAGTAAACAAATTTTCCTAATCTTTCTGTTCAAGCGCCATCTAC,1.09 RPM ratio (pull-down/input)
9,GATGATTGTTCTCCCAGCTGATGAATTTTGTCGTTCGAGTAAACAAATTTTCCTAATCTTTCTGTTCAAGCGCCATCTAC,1.17 RPM ratio (pull-down/input)
10,GATGATTGTTCTCCCAGCTGATGAATTGCTATTGTCGAGTAAACAAATTTTCCTAATCTTTCTGTTCAAGCGCCATCTAC,2.28 RPM ratio (pull-down/input)
11,GATGATTGTTCTCCCAGCTGATGAATTCAGAAATTCGAGTAAACAAATTTTCCTAATCTTTCTGTTCAAGCGCCATCTAC,0.848 RPM ratio (pull-down/input)
12,GATGATTGTTCTCCCAGCTGATGAATTTAGGAACTCGAGTAAACAAATTTTCCTAATCTTTCTGTTCAAGCGCCATCTAC,0.965 RPM ratio (pull-down/input)
13,GATGATTGTTCTCCCAGCTGATGAATTATGTGGGTCGAGTAAACAAATTTTCCTAATCTTTCTGTTCAAGCGCCATCTAC,0.922 RPM ratio (pull-down/input)
14,GATGATTGTTCTCCCAGCTGATGAATTCAGACGCTCGAGTAAACAAATTTTCCTAATCTTTCTGTTCAAGCGCCATCTAC,0.891 RPM ratio (pull-down/input)
15,GATGATTGTTCTCCCAGCTGATGAATTGGCTGGTTCGAGTAAACAAATTTTCCTAATCTTTCTGTTCAAGCGCCATCTAC,0.864 RPM ratio (pull-down/input)
16,GATGATTGTTCTCCCAGCTGATGAATTCTGAACATCGAGTAAACAAATTTTCCTAATCTTTCTGTTCAAGCGCCATCTAC,0.898 RPM ratio (pull-down/input)
17,GATGATTGTTCTCCCAGCTGATGAATTAGGTGAGTCGAGTAAACAAATTTTCCTAATCTTTCTGTTCAAGCGCCATCTAC,0.866 RPM ratio (pull-down/input)
18,GATGATTGTTCTCCCAGCTGATGAATTCTCATGGTCGAGTAAACAAATTTTCCTAATCTTTCTGTTCAAGCGCCATCTAC,0.904 RPM ratio (pull-down/input)
19,GATGATTGTTCTCCCAGCTGATGAATTTCCCTGATCGAGTAAACAAATTTTCCTAATCTTTCTGTTCAAGCGCCATCTAC,0.835 RPM ratio (pull-down/input)
20,GATGATTGTTCTCCCAGCTGATGAATTGTACTTTTCGAGTAAACAAATTTTCCTAATCTTTCTGTTCAAGCGCCATCTAC,1.04 RPM ratio (pull-down/input)
21,GATGATTGTTCTCCCAGCTGATGAATTCAGAGACTCGAGTAAACAAATTTTCCTAATCTTTCTGTTCAAGCGCCATCTAC,0.821 RPM ratio (pull-down/input)

row,Sequence,binding signal
1,GATGATTGTTCTCCCAGCTGATGAATTCCAAACATCGAGTAAACAAATTTTCCTAATCTTTCTGTTCAAGCGCCATCTAC,1.6 RPM ratio (pull-down/input)
2,GATGATTGTTCTCCCAGCTGATGAATTAACCCTCTCGAGTAAACAAATTTTCCTAATCTTTCTGTTCAAGCGCCATCTAC,0.849 RPM ratio (pull-down/input)
3,GATGATTGTTCTCCCAGCTGATGAATTCGAGCATTCGAGTAAACAAATTTTCCTAATCTTTCTGTTCAAGCGCCATCTAC,1.12 RPM ratio (pull-down/input)
4,GATGATTGTTCTCCCAGCTGATGAATTTAACATTTCGAGTAAACAAATTTTCCTAATCTTTCTGTTCAAGCGCCATCTAC,0.988 RPM ratio (pull-down/input)
5,GATGATTGTTCTCCCAGCTGATGAATTTGTGTCGTCGAGTAAACAAATTTTCCTAATCTTTCTGTTCAAGCGCCATCTAC,1.23 RPM ratio (pull-down/input)
6,GATGATTGTTCTCCCAGCTGATGAATTCAGATTCTCGAGTAAACAAATTTTCCTAATCTTTCTGTTCAAGCGCCATCTAC,0.825 RPM ratio (pull-down/input)
7,GATGATTGTTCTCCCAGCTGATGAATTCCCAGATTCGAGTAAACAAATTTTCCTAATCTTTCTGTTCAAGCGCCATCTAC,0.781 RPM ratio (pull-down/input)
8,GATGATTGTTCTCCCAGCTGATGAATTGAAACTCTCGAGTAAACAAATTTTCCTAATCTTTCTGTTCAAGCGCCATCTAC,0.736 RPM ratio (pull-down/input)
9,GATGATTGTTCTCCCAGCTGATGAATTGAACTGATCGAGTAAACAAATTTTCCTAATCTTTCTGTTCAAGCGCCATCTAC,0.826 RPM ratio (pull-down/input)
10,GATGATTGTTCTCCCAGCTGATGAATTATATGCCTCGAGTAAACAAATTTTCCTAATCTTTCTGTTCAAGCGCCATCTAC,1.05 RPM ratio (pull-down/input)
11,GATGATTGTTCTCCCAGCTGATGAATTCGAAGTCTCGAGTAAACAAATTTTCCTAATCTTTCTGTTCAAGCGCCATCTAC,0.816 RPM ratio (pull-down/input)
12,GATGATTGTTCTCCCAGCTGATGAATTGTGTCGTTCGAGTAAACAAATTTTCCTAATCTTTCTGTTCAAGCGCCATCTAC,1.08 RPM ratio (pull-down/input)
13,GATGATTGTTCTCCCAGCTGATGAATTGTGCGATTCGAGTAAACAAATTTTCCTAATCTTTCTGTTCAAGCGCCATCTAC,1.01 RPM ratio (pull-down/input)
14,GATGATTGTTCTCCCAGCTGATGAATTTACGACATCGAGTAAACAAATTTTCCTAATCTTTCTGTTCAAGCGCCATCTAC,1.34 RPM ratio (pull-down/input)
15,GATGATTGTTCTCCCAGCTGATGAATTCCGCCGTTCGAGTAAACAAATTTTCCTAATCTTTCTGTTCAAGCGCCATCTAC,0.826 RPM ratio (pull-down/input)
16,GATGATTGTTCTCCCAGCTGATGAATTCGGGTTCTCGAGTAAACAAATTTTCCTAATCTTTCTGTTCAAGCGCCATCTAC,0.806 RPM ratio (pull-down/input)
17,GATGATTGTTCTCCCAGCTGATGAATTGCCTCACTCGAGTAAACAAATTTTCCTAATCTTTCTGTTCAAGCGCCATCTAC,0.917 RPM ratio (pull-down/input)
18,GATGATTGTTCTCCCAGCTGATGAATTCGGCCCGTCGAGTAAACAAATTTTCCTAATCTTTCTGTTCAAGCGCCATCTAC,0.768 RPM ratio (pull-down/input)
19,GATGATTGTTCTCCCAGCTGATGAATTATACCACTCGAGTAAACAAATTTTCCTAATCTTTCTGTTCAAGCGCCATCTAC,0.968 RPM ratio (pull-down/input)
20,GATGATTGTTCTCCCAGCTGATGAATTCTTACCATCGAGTAAACAAATTTTCCTAATCTTTCTGTTCAAGCGCCATCTAC,1 RPM ratio (pull-down/input)
21,GATGATTGTTCTCCCAGCTGATGAATTACCCAGTTCGAGTAAACAAATTTTCCTAATCTTTCTGTTCAAGCGCCATCTAC,0.863 RPM ratio (pull-down/input)

row,Sequence,binding signal
1,GATGATTGTTCTCCCAGCTGATGAATTCTGCCGGTCGAGTAAACAAATTTTCCTAATCTTTCTGTTCAAGCGCCATCTAC,0.736 RPM ratio (pull-down/input)
2,GATGATTGTTCTCCCAGCTGATGAATTTTAGTCTTCGAGTAAACAAATTTTCCTAATCTTTCTGTTCAAGCGCCATCTAC,0.829 RPM ratio (pull-down/input)
3,GATGATTGTTCTCCCAGCTGATGAATTTGCTTTGTCGAGTAAACAAATTTTCCTAATCTTTCTGTTCAAGCGCCATCTAC,1.16 RPM ratio (pull-down/input)
4,GATGATTGTTCTCCCAGCTGATGAATTCACTATGTCGAGTAAACAAATTTTCCTAATCTTTCTGTTCAAGCGCCATCTAC,0.903 RPM ratio (pull-down/input)
5,GATGATTGTTCTCCCAGCTGATGAATTGATCGCGTCGAGTAAACAAATTTTCCTAATCTTTCTGTTCAAGCGCCATCTAC,1.05 RPM ratio (pull-down/input)
6,GATGATTGTTCTCCCAGCTGATGAATTAATAATCTCGAGTAAACAAATTTTCCTAATCTTTCTGTTCAAGCGCCATCTAC,1.06 RPM ratio (pull-down/input)
7,GATGATTGTTCTCCCAGCTGATGAATTGCCTGGATCGAGTAAACAAATTTTCCTAATCTTTCTGTTCAAGCGCCATCTAC,0.884 RPM ratio (pull-down/input)
8,GATGATTGTTCTCCCAGCTGATGAATTGGTTATATCGAGTAAACAAATTTTCCTAATCTTTCTGTTCAAGCGCCATCTAC,1.1 RPM ratio (pull-down/input)
9,GATGATTGTTCTCCCAGCTGATGAATTGCTTGGGTCGAGTAAACAAATTTTCCTAATCTTTCTGTTCAAGCGCCATCTAC,0.965 RPM ratio (pull-down/input)
10,GATGATTGTTCTCCCAGCTGATGAATTACTCATGTCGAGTAAACAAATTTTCCTAATCTTTCTGTTCAAGCGCCATCTAC,1.04 RPM ratio (pull-down/input)
11,GATGATTGTTCTCCCAGCTGATGAATTAATAGTTTCGAGTAAACAAATTTTCCTAATCTTTCTGTTCAAGCGCCATCTAC,0.967 RPM ratio (pull-down/input)
12,GATGATTGTTCTCCCAGCTGATGAATTCCTACATTCGAGTAAACAAATTTTCCTAATCTTTCTGTTCAAGCGCCATCTAC,0.987 RPM ratio (pull-down/input)
13,GATGATTGTTCTCCCAGCTGATGAATTTCGTCTTTCGAGTAAACAAATTTTCCTAATCTTTCTGTTCAAGCGCCATCTAC,0.934 RPM ratio (pull-down/input)
14,GATGATTGTTCTCCCAGCTGATGAATTAGACTCGTCGAGTAAACAAATTTTCCTAATCTTTCTGTTCAAGCGCCATCTAC,0.869 RPM ratio (pull-down/input)
15,GATGATTGTTCTCCCAGCTGATGAATTTCTCAGGTCGAGTAAACAAATTTTCCTAATCTTTCTGTTCAAGCGCCATCTAC,0.7 RPM ratio (pull-down/input)
16,GATGATTGTTCTCCCAGCTGATGAATTATAGGCGTCGAGTAAACAAATTTTCCTAATCTTTCTGTTCAAGCGCCATCTAC,0.934 RPM ratio (pull-down/input)
17,GATGATTGTTCTCCCAGCTGATGAATTTAGAGCATCGAGTAAACAAATTTTCCTAATCTTTCTGTTCAAGCGCCATCTAC,1.13 RPM ratio (pull-down/input)
18,GATGATTGTTCTCCCAGCTGATGAATTTTCGGTCTCGAGTAAACAAATTTTCCTAATCTTTCTGTTCAAGCGCCATCTAC,0.816 RPM ratio (pull-down/input)
19,GATGATTGTTCTCCCAGCTGATGAATTCTAATAATCGAGTAAACAAATTTTCCTAATCTTTCTGTTCAAGCGCCATCTAC,1.19 RPM ratio (pull-down/input)
20,GATGATTGTTCTCCCAGCTGATGAATTCGTGTGGTCGAGTAAACAAATTTTCCTAATCTTTCTGTTCAAGCGCCATCTAC,0.967 RPM ratio (pull-down/input)
21,GATGATTGTTCTCCCAGCTGATGAATTTCGGTAGTCGAGTAAACAAATTTTCCTAATCTTTCTGTTCAAGCGCCATCTAC,0.768 RPM ratio (pull-down/input)
